Experimental data reported in PubChem BioAssay (Tox21).
The shares of active, inactive and inconclusive entries below differ from those in the screen. For some assays here: Potencies of inconclusive entries are doubtful fits and often do not repeat. Activity calls are given as the source filed them. Unless noted, the call rests on the fitted dose curve; in most records, active means well fitted curve in the direction sought with a large enough effect in the repeat runs; inconclusive means weak or mixed curves; inactive means no such curve, though single readings can be large; an effect the other way counts as inactive or inconclusive.

Columns and labels:
[1] = qHTS assay for small molecule agonists of the p53 signaling pathway (AID 651631; calls by dose curve; further: nearly all actives have a fitted effect of over 15% in size; further: potency means the concentration at half of the fitted maximal effect); settings: HCT-116 p53RE-bla reporter, beta-lactamase FRET ratio, 16 h; activation: at 73.3 µM (top of the series) unless noted
In short: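 HCT-116 cells carrying a stable p53 response element–beta-lactamase reporter were plated, rested 5 h at 37 °C, then exposed to compound in DMSO for 16 h at 37 °C; reporter activity was read as FRET substrate fluorescence after 2 h at room temperature.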

[2] = qHTS assay to identify small molecule antagonists of the thyroid receptor (TR) signaling pathway - cell viability counter screen (AID 743064); settings: GH3.TRE-Luc viability, CellTiter-Fluor, 24 h; activity change, negative = cytotoxic: at 70.3 µM (top of the series) unless noted; further: nearly all actives have a fitted effect of over 50% in size; further: potency means the concentration at half of the fitted maximal effect
In short: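 GH3.TRE-Luc rat pituitary cells carrying a TRE-luciferase reporter were treated with compound plus 1 nM T3 (final) for 23.5 h at 37 °C. Viability was then read in the same wells by CellTiter-Fluor fluorescence after a further 30 min.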

[3] = qHTS assay to identify small molecule antagonists of the thyroid receptor (TR) signaling pathway (AID 743065); further: potency means the concentration at half of the fitted maximal effect; nearly all actives have a fitted effect of over 55% in size
In short: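 Antagonism measured as loss of luciferase signal in GH3 cells stably carrying a TRE-luciferase reporter, co-treated with compound and T3 (1 nM final) for 23.5 h at 37 C. Viability was read in the same well by CellTiter-Fluor.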

[4] = qHTS assay to identify small molecule antagonists of the estrogen receptor alpha (ER-alpha) signaling pathway using the BG1 cell line - cell viability counter screen (AID 743081); settings: BG1Luc4E2 viability, CellTiter-Fluor, 22 h; activity change, negative = cytotoxicity: at 70.3 µM (top of the series) unless noted;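 further: compound given together with 17beta-estradiol as the ER stimulus; potency means the concentration at half of the fitted maximal effect; nearly all actives have a fitted effect of over 45% in size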
[5] = qHTS assay to identify small molecule phospholipidosis (PLD) inducers (AID 1259344; active means well fitted curve in the direction sought with a large enough effect; inconclusive means small, poorly fitted or top-dose-only effect, or another doubt; inactive means no such curve, though single readings can be large; an effect the other way counts as inactive or inconclusive; further: potency means the concentration at half of the fitted maximal effect; on PLD induction: on the % scale 0 is the no-effect control and ±100 the full control effect); settings: HepG2 phospholipidosis, LipidTOX Red imaging, 24 h; PLD induction: at 38.3 µM (top of the series) unless noted
In short: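 Accumulated phospholipid, stained red by LipidTOX during 24 h compound treatment of HepG2 cells at 37 C, is quantified from images as pit number and intensity, normalised per cell using Hoechst-stained nuclei.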

[6] = qHTS assay for small molecule disruptors of the mitochondrial membrane potential (AID 720635); settings: HepG2 mitochondrial membrane potential, Mito-MPS dye ratio; ratio activity, negative = MMP loss: at 83.2 µM (top of the series) unless noted; further: potency means the concentration at half of the fitted maximal effect
In short: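 Mitochondrial membrane potential tracked with Mito-MPS dye, red aggregates (ex 540/em 590 nm) against green monomers (ex 490/em 535 nm). Compound treatment 1 hr at 37C, dye 30 min in HepG2.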

[7] = qHTS assay to identify small molecule antagonists of the androgen receptor (AR) signaling pathway - cell viability counter screen (AID 743033; further: on the % scale 0 is the no-effect control and ±100 the full control effect; nearly all actives have a fitted effect of over 45% in size); settings: AR-bla HEK293 viability, CellTiter-Glo luminescence, 16 h; activity change, negative = cytotoxicity: at 58.5 µM (top of the series) unless noted
[8] = target: Estrogen receptor (Homo sapiens) (UniProt P03372); experiment: qHTS assay to identify small molecule antagonists of the estrogen receptor alpha (ER-alpha) signaling pathway (AID 743069; active means well fitted curve in the direction sought with a large enough effect in the signal ratio in the repeat runs, not every such curve was filed as active; inconclusive means weak or mixed curves, or effect the other way; inactive means no such curve, though single readings can be large or run the other way; the % refers to the signal ratio; further: potency means the concentration at half of the fitted maximal effect); settings: HEK293 ER-alpha-UAS-bla, beta-lactamase ratio, antagonist mode; activity, negative = inhibition: at 69.4 µM (top of the series) unless noted
In short: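 Fluorescence intensity from a beta-lactamase FRET substrate served as the read-out. Cells: HEK293 with stably integrated ER-alpha-UAS-bla reporter. Agonist 17beta-estradiol was co-added with compounds; incubation 18 hr at 37C, substrate 2 hr at room temperature.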

[9] = qHTS assay to identify small molecule antagonists of the estrogen receptor alpha (ER-alpha) signaling pathway using the BG1 cell line (AID 743080; calls by dose curve;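 further: BG1 cells stimulated with 17beta-estradiol alongside compound; nearly all actives have a fitted effect of over 25% in size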; further: potency means the concentration at half of the fitted maximal effect; on activity change, negative = inhibition: on the % scale 0 is the no-effect control and ±100 the full control effect); settings: BG1Luc4E2 ERE-luciferase antagonist mode, luminescence; activity change, negative = inhibition: at 70.3 µM (top of the series) unless noted
In short: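 After 5 days in phenol-red-free 10% charcoal-stripped FBS medium, BG1-Luc-4E2 cells were seeded, left 24 h at 37 C, co-treated with compounds and 17beta-estradiol for 21.5 h, then assayed for viability and luciferase.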

[10] = target: Glucocorticoid receptor (Homo sapiens) (UniProt P04150); experiment: qHTS assay to identify small molecule antagonists of the glucocorticoid receptor (GR) signaling pathway (AID 720692; active means well fitted inhibition curve with a large enough effect in the signal ratio in the repeat runs, not every such curve was filed as active; inconclusive means weak or mixed curves, or effect the other way; inactive means no such curve, though single readings can be large or run the other way; the % refers to the signal ratio; further: on the % scale 0 is the no-effect control and ±100 the full control effect); settings: GR-bla HeLa, beta-lactamase FRET ratio, dexamethasone-stimulated, 18 h; activity change, negative = inhibition: at 58.5 µM (top of the series) unless noted
In short: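 Quantitative HTS in antagonist format: HeLa cells expressing endogenous GR and a stably integrated GRE-bla reporter, stimulated with 5 nM dexamethasone (final) alongside test compounds for 18 h.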

[11] = qHTS assay for identifying genotoxic compounds that show differential cytotoxicity against isogenic chicken DT40 cell lines with known DNA damage response pathways - Rad54/Ku70 mutant cell line (AID 743015); settings: DT40 Rad54/Ku70 mutant viability, CellTiter-Glo, 40 h; activity change, negative = cytotoxicity: at 66.8 µM (top of the series) unless noted; further: nearly all actives have a fitted effect of over 60% in size; further: potency means the concentration at half of the fitted maximal effect
[12] = qHTS assay to identify small molecule antagonists of the androgen receptor (AR) signaling pathway using the MDA cell line - cell viability counter screen (AID 743041; further: nearly all actives have a fitted effect of over 45% in size; further: potency means the concentration at half of the fitted maximal effect); settings: MDA-kb2 viability, CellTiter-Fluor, 16 h, cells co-treated with R1881 androgen agonist; viability change, negative = cytotoxic: at 70.3 µM (top of the series)
In short: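 Using the breast carcinoma line MDA-kb2 AR-luc, test chemicals were co-incubated with R1881 for 16 h; CellTiter-Fluor reagent, added at 15.5 h, provided a fluorescence measure of live cells.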

[13] = qHTS assay to identify small molecule antagonists of the estrogen receptor alpha (ER-alpha) signaling pathway - cell viability counter screen (AID 743074; calls by dose curve; further: potency means the concentration at half of the fitted maximal effect; nearly all actives have a fitted effect of over 45% in size)
[14] = qHTS assay to identify aromatase inhibitors - cell viability counter screen (AID 743084); settings: MCF-7 aro ERE viability, CellTiter-Fluor, 24 h; activity change, negative = cytotoxicity: at 70.3 µM (top of the series) unless noted;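 further: cells stimulated with testosterone during compound exposure; nearly all actives have a fitted effect of over 55% in size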; further: potency means the concentration at half of the fitted maximal effect
[15] = qHTS assay for identifying genotoxic compounds that show differential cytotoxicity against isogenic chicken DT40 cell lines with known DNA damage response pathways - Rev3 mutant cell line (AID 743014); settings: chicken DT40 Rev3-/- viability, CellTiter-Glo, 40 h; activity, negative = cytotoxicity: at 68.4 µM (top of the series) unless noted; further: potency means the concentration at half of the fitted maximal effect; nearly all actives have a fitted effect of over 55% in size
[16] = qHTS assay to identify small molecule that activate the aryl hydrocarbon receptor (AhR) signaling pathway - cell viability counter screen (AID 743086); further: nearly all actives have a fitted effect of over 45% in size; further: potency means the concentration at half of the fitted maximal effect
In short: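 Cytotoxicity counter screen: CellTiter-Fluor signal (30 min, 37 C) in 4000 HepG2 cells/well carrying the DRE-luciferase reporter, following 24 h compound exposure at 37 C.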

[17] = qHTS assay for identifying genotoxic compounds that show differential cytotoxicity against isogenic chicken DT40 cell lines with known DNA damage response pathways - wild type cell line (AID 743012); settings: DT40 wild type chicken cells viability, CellTiter-Glo, 40 h; activity change, negative = cytotoxicity: at 68.4 µM (top of the series) unless noted; further: on the % scale 0 is the no-effect control and ±100 the full control effect; nearly all actives have a fitted effect of over 60% in size
In short: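 Luminescent ATP viability signal (CellTiter-Glo, 30 min RT) recorded after wild type DT40 cells were incubated with compounds for 40 h at 37 C/5% CO2.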

[18] = target: Estrogen receptor (Homo sapiens) (UniProt P03372); experiment: qHTS assay to identify small molecule agonists of the estrogen receptor alpha (ER-alpha) signaling pathway using the BG1 cell line (AID 743079); settings: BG1Luc4E2 cells, ERE-luciferase agonist, 22 h; activation: at 70.3 µM (top of the series) unless noted; further: on the % scale 0 is the no-effect control and ±100 the full control effect; nearly all actives have a fitted effect of over 20% in size
[19] = target: Peroxisome proliferator-activated receptor gamma (Homo sapiens) (UniProt P37231); experiment: qHTS assay to identify small molecule agonists of the peroxisome proliferator-activated receptor gamma (PPARg) signaling pathway (AID 743094; active means well fitted activation curve with a large enough effect in the signal ratio in the repeat runs, not every such curve was filed as active; inconclusive means weak or mixed curves, or effect the other way; inactive means no such curve, though single readings can be large or run the other way; the % refers to the signal ratio; further: on the % scale 0 is the no-effect control and ±100 the full control effect); settings: HEK293H PPARg-UAS-bla, beta-lactamase FRET ratio, 17 h; activation: at 57 µM (top of the series) unless noted
In short: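 Reporter activation was scored by fluorescence of cleaved LiveBLAzer B/G substrate (1 h, room temperature) in PPARg-bla HEK293H cells previously treated 17 h at 37C with DMSO-dissolved compounds.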

[20] = system: thyroid hormone receptor (rat, GH3 cells); experiment: qHTS assay to identify small molecule agonists of the thyroid receptor (TR) signaling pathway (AID 743066; calls by dose curve; further: potency means the concentration at half of the fitted maximal effect); settings: GH3.TRE-Luc cells, TR agonist luciferase, 24 h; activation: at 83.9 µM (top of the series) unless noted
Tags describe the fitted curve by direction and shape or compound fluorescence and quenching.

UniProt P03372, sequence (P03372 whole entry, looked up): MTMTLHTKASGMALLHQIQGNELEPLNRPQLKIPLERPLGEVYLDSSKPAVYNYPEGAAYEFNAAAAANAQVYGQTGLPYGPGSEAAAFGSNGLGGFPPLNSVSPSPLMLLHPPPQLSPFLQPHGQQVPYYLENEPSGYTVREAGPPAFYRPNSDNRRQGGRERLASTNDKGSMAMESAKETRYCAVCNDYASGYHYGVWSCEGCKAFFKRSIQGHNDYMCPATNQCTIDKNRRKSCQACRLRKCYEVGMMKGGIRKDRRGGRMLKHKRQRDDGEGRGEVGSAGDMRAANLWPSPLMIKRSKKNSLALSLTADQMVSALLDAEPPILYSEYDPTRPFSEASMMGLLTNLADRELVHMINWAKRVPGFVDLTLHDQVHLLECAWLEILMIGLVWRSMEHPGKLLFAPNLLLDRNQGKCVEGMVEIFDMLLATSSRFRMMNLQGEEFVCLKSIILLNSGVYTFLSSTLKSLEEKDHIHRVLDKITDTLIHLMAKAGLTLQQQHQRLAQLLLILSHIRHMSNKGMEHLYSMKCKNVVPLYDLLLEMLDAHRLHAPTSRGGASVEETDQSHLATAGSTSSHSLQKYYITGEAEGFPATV
UniProt P04150, sequence (P04150 whole entry, looked up): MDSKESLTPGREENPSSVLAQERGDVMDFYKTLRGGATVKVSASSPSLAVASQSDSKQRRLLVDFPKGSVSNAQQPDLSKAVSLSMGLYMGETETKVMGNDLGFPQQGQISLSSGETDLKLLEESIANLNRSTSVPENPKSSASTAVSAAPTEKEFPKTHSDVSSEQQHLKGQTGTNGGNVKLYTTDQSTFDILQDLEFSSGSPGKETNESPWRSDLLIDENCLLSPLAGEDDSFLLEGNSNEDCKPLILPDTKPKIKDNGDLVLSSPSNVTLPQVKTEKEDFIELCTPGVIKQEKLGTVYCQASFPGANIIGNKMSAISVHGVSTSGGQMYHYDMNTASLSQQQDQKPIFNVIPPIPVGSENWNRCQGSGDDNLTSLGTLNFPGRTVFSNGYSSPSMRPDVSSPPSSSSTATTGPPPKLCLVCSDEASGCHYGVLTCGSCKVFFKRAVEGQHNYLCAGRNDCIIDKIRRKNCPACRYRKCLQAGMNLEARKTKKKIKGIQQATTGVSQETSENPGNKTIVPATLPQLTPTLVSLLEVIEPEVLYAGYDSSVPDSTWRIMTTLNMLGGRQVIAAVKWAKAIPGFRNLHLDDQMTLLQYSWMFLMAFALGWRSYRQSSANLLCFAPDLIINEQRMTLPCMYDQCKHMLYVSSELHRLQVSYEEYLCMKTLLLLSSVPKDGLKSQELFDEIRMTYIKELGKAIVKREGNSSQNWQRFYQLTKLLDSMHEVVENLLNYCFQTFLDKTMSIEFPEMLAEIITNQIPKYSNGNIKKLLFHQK
UniProt P37231, sequence (P37231 whole entry, looked up): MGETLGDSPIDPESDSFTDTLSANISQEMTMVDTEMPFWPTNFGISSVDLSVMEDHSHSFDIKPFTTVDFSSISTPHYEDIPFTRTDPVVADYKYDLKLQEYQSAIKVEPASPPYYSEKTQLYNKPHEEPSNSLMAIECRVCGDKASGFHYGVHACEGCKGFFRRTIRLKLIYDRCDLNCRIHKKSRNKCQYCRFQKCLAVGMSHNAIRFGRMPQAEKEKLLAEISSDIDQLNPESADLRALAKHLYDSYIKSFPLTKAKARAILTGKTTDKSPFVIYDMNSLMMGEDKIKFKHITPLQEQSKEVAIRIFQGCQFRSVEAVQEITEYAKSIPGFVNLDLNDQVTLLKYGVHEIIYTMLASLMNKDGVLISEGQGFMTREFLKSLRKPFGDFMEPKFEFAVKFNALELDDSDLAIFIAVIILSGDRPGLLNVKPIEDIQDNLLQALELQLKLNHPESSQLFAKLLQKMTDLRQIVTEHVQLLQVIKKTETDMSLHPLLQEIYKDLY

CCCCCCCN(CC)CCCC(O)c1ccc(NS(C)(=O)=O)cc1 (configuration not stated)
inconclusive: Potency [1] 9.44 µM [activator, partial curve] | Potency [4] 33.5 µM [cytotoxic, single point] | Potency [5] 10 µM [activator, single point]
active: Potency [2] 23.7 µM | Potency [3] 21.1 µM

CCC(=O)OCC(=O)[C@@]1(OC(=O)CC)[C@H](C)C[C@H]2[C@@H]3CCC4=CC(=O)C=C[C@]4(C)[C@@]3(F)[C@@H](O)C[C@@]21C
active: Potency [6] 29.8 µM
inconclusive: activity change, negative = cytotoxicity [7] -38.3% [cytotoxic] | Potency [8] 23.9 µM [fluorescent, partial curve] | activity change, negative = inhibition [9] 23.7% | Potency [5] 20 µM [activator, single point]

C/C1=C2N=C(/C=C3N=C(/C(C)=C4\[N-]C(C(CC(N)=O)C4(C)CCC(=O)NCC(C)OP(=O)([O-])OC4C(CO)OC(n5cnc6cc(C)c(C)cc65)C4O)C4(C)N=C1C(CCC(N)=O)C4(C)CC(N)=O)C(CCC(N)=O)C\3(C)C)C(CCC(N)=O)C/2(C)CC(N)=O.[CH3-].[Co+3] (configuration not stated)
inactive: Potency [10] | Potency [5]
active: Potency [12] 23.7 µM | Potency [14] 23.7 µM
inconclusive: Potency [11] 26.6 µM [cytotoxic] | Potency [13] 10.7 µM [cytotoxic, single point] | Potency [9] 13.3 µM [falling, partial curve] | Potency [4] 33.5 µM [cytotoxic, single point]

Cc1nc(NS(=O)(=O)c2ccc(N)cc2)nc(C)c1Br
inactive: Potency [11] | Potency [7] | Potency [2] | Potency [16] | Potency [5]
inconclusive: ratio activity, negative = MMP loss [6] 34% | Potency [15] 26.6 µM [rising, partial curve, poor fit]

CCOC(=O)CN[C@@H](C(=O)N1CC[C@H]1C(=O)NCc1ccc(/C(N)=N/O)cc1)C1CCCCC1
inactive: Potency [10] | Potency [17] | Potency [12] | Potency [18] | Potency [19]
inconclusive: activity, negative = inhibition [8] -33.1% | Potency [14] 33.5 µM [cytotoxic, partial curve, poor fit] | Potency [16] 29.8 µM [falling, single point] | PLD induction [5] 12% [activator]

CC(CN1c2ccccc2Sc2ccc(S(=O)(=O)N(C)C)cc21)N(C)C (configuration not stated)
inconclusive: Potency [1] 3.76 µM [rising, full curve] | ratio activity, negative = MMP loss [6] 35.4% | Potency [20] 15 µM [inhibitor, partial curve, poor fit] | Potency [16] 16.8 µM [falling, partial curve] | Potency [5] 6.31 µM [activator, partial curve]
inactive: Potency [10]

CCOC(=O)c1c[nH]c2cc(OCC(C)C)c(OCC(C)C)cc2c1=O
inactive: Potency [16] | Potency [5]
inconclusive: Potency [1] 8.41 µM [rising, partial curve, poor fit] | Potency [15] 21.1 µM [rising, partial curve, poor fit]

CCC(=O)OCC(=O)[C@@]1(OC(=O)CC)[C@@H](C)C[C@H]2[C@@H]3CCC4=CC(=O)C=C[C@]4(C)[C@@]3(F)[C@@H](O)C[C@@]21C
inconclusive: Potency [1] 21.1 µM [falling, partial curve] | Potency [2] 33.5 µM [cytotoxic, single point] | Potency [8] 0.477 µM [activator, full curve, poor fit] | activation [18] 0.456% [activator] | Potency [9] 0.0211 µM [rising, full curve, poor fit] | Potency [4] 18.8 µM [cytotoxic, single point] | Potency [5] 25.1 µM [activator, single point]
active: Potency [6] 23.7 µM | Potency [11] 23.7 µM
inactive: Potency [14]

CC(C)CCC[C@@H](C)[C@H]1CC(=O)C2=C3CC[C@H]4C[C@@H](O)CC[C@]4(C)[C@H]3CC[C@@]21C
inconclusive: activation [1] 9.05% | Potency [6] 5.96 µM [rising, full curve, poor fit] | activity change, negative = inhibition [10] 5.86% | Potency [3] 5.96 µM [inhibitor, full curve] | Potency [13] 3.38 µM [cytotoxic, partial curve, poor fit]
inactive: Potency [8] | Potency [19] | Potency [5]
